Measured values published in patent US20260297081A1, “COMPOUNDS AND METHODS OF TREATING CANCERS” (Cullgen Inc., priority 2023, published 2026).
The name of at least one read-out is uncertain.

These molecules were tested on cyclin D1 (assay: HiBiT detection of HiBiT-tagged cyclin D1 protein level in MCF7 cells, 16 hours (Table 8)). Settings: 10 nM, MCF7 cells stably expressing HiBiT tagged target proteins.
Format: cell-based

| SMILES | % Cyclin D1 Relative Level (10 nM) |
| --- | --- |
| CC(=O)c1c(C)c2cnc(Nc3ccc(N4CCC(N5CCC[C@H]5C(=O)NC5CC6(C5)CC(Nc5nc(NC(C)C)ccc5C(=O)Nc5ccc(N(C)C)nn5)C6)CC4)cn3)nc2n(C2CCCC2)c1=O (stereo partly drawn) [CPD-543, (S)-2-((6-(1-(1-(6-((6-acetyl-8-cyclopentyl-5-methyl-7-oxo-7,8-dihydropyrido[2,3-d]pyrimidin-2-yl)amino)pyridin-3-yl)piperidin-4-yl)pyrrolidine-2-carboxamido)spiro[3.3]heptan-2-yl)amino)-N-(6-(dimethylamino)pyridazin-3-yl)-6-(isopropylamino)nicotinamide] | B (55%< Relative protein level ≤85%) |
| CC(=O)c1c(C)c2cnc(Nc3ccc(N4CCC(N5CCC[C@H]5C(=O)N5CC6(CC(Nc7nc(NC(C)C)ccc7C(=O)Nc7ccc(N(C)C)nn7)C6)C5)CC4)cn3)nc2n(C2CCCC2)c1=O [CPD-544, 2-((2-((1-(6-((6-acetyl-8-cyclopentyl-5-methyl-7-oxo-7,8-dihydropyrido[2,3-d]pyrimidin-2-yl)amino)pyridin-3-yl)piperidin-4-yl)-L-prolyl)-2-azaspiro[3.3]heptan-6-yl)amino)-N-(6-(dimethylamino)pyridazin-3-yl)-6-(isopropylamino)nicotinamide] | B (55%< Relative protein level ≤85%) |
| CC(=O)c1c(C)c2cnc(Nc3ccc(N4CCN(C5CCN(C(=O)N6CC7(CCC(Nc8nc(NC(C)C)ccc8C(=O)Nc8ccc(N(C)C)nn8)C7)C6)C5)CC4)cn3)nc2n(C2CCCC2)c1=O (stereo not drawn) [CPD-545, 2-((2-(3-(4-(6-((6-acetyl-8-cyclopentyl-5-methyl-7-oxo-7,8-dihydropyrido[2,3-d]pyrimidin-2-yl)amino)pyridin-3-yl)piperazin-1-yl)pyrrolidine-1-carbonyl)-2-azaspiro[3.4]octan-6-yl)amino)-N-(6-(dimethylamino)pyridazin-3-yl)-6-(isopropylamino)nicotinamide] | C (Relative protein level >85%) |
| CC(=O)c1c(C)c2cnc(Nc3ccc(CN4CCN(CC(=O)N5CCC6(CCC(Nc7nc(NC(C)C)ccc7C(=O)Nc7cc(C)n(C)n7)C6)C5)CC4)cn3)nc2n(C2CCCC2)c1=O (stereo not drawn) [CPD-547, 2-((2-(2-(4-((6-((6-acetyl-8-cyclopentyl-5-methyl-7-oxo-7,8-dihydropyrido[2,3-d]pyrimidin-2-yl)amino)pyridin-3-yl)methyl)piperazin-1-yl)acetyl)-2-azaspiro[4.4]nonan-7-yl)amino)-N-(1,5-dimethyl-1H-pyrazol-3-yl)-6-(isopropylamino)nicotinamide] | B (55%< Relative protein level ≤85%) |
| CC(=O)c1c(C)c2cnc(Nc3ccc(CN4CCN(CC(=O)N5CCC6(CCC(Nc7nc(NC(C)C)ccc7C(=O)Nc7cn(C)c(C8CC8)n7)C6)C5)CC4)cn3)nc2n(C2CCCC2)c1=O (stereo not drawn) [CPD-548, 2-((2-(2-(4-((6-((6-acetyl-8-cyclopentyl-5-methyl-7-oxo-7,8-dihydropyrido[2,3-d]pyrimidin-2-yl)amino)pyridin-3-yl)methyl)piperazin-1-yl)acetyl)-2-azaspiro[4.4]nonan-7-yl)amino)-N-(2-cyclopropyl-1-methyl-1H-imidazol-4-yl)-6-(isopropylamino)nicotinamide] | B (55%< Relative protein level ≤85%) |
| CC(=O)c1c(C)c2cnc(Nc3ccc(CN4CCN(CC(=O)N5CCC6(CCC(Nc7nc(NC(C)C)ccc7C(=O)Nc7cc8n(n7)CCC8)C6)C5)CC4)cn3)nc2n(C2CCCC2)c1=O (stereo not drawn) [CPD-549, 2-((2-(2-(4-((6-((6-acetyl-8-cyclopentyl-5-methyl-7-oxo-7,8-dihydropyrido[2,3-d]pyrimidin-2-yl)amino)pyridin-3-yl)methyl)piperazin-1-yl)acetyl)-2-azaspiro[4.4]nonan-7-yl)amino)-N-(5,6-dihydro-4H-pyrrolo[1,2-b]pyrazol-2-yl)-6-(isopropylamino)nicotinamide] | B (55%< Relative protein level ≤85%) |
| CC(=O)c1c(C)c2cnc(Nc3ccc(CN4CCN(C(C)C(=O)N5CCC6(CCC(Nc7nc(NC(C)C)ccc7C(=O)Nc7ccc(N(C)C)nn7)C6)C5)CC4)cn3)nc2n(C2CCCC2)c1=O (stereo not drawn) [CPD-550, 2-((2-(2-(4-((6-((6-acetyl-8-cyclopentyl-5-methyl-7-oxo-7,8-dihydropyrido[2,3-d]pyrimidin-2-yl)amino)pyridin-3-yl)methyl)piperazin-1-yl)propanoyl)-2-azaspiro[4.4]nonan-7-yl)amino)-N-(6-(dimethylamino)pyridazin-3-yl)-6-(isopropylamino)nicotinamide] | B (55%< Relative protein level ≤85%) |
| CC(=O)c1c(C)c2cnc(Nc3ccc(N4CCN(C5CCN(C(=O)[C@H]6CC[C@H](Nc7nc(NC(C)C)ccc7-c7nc8cnc(N(C)C)cc8[nH]7)CC6)C5)CC4)cn3)nc2n(C2CCCC2)c1=O (stereo partly drawn) [CPD-552, trans-6-acetyl-8-cyclopentyl-2-((5-(4-(1-(trans-4-((3-(6-(dimethylamino)-3H-imidazo[4,5-c]pyridin-2-yl)-6-(isopropylamino)pyridin-2-yl)amino)cyclohexane-1-carbonyl)pyrrolidin-3-yl)piperazin-1-yl)pyridin-2-yl)amino)-5-methylpyrido[2,3-d]pyrimidin-7(8H)-one] | C (Relative protein level >85%) |
| CCN1CCc2cc(-c3nc(Nc4ccc(CN5CCN(CC(=O)N6CC7(CC(Nc8nc(NC(C)C)ccc8C(=O)Nc8ccc(N(C)C)nn8)C7)C6)CC5)cn4)ncc3F)ccc2C1=O [CPD-553, N-(6-(dimethylamino)pyridazin-3-yl)-2-((2-(2-(4-((6-((4-(2-ethyl-1-oxo-1,2,3,4-tetrahydroisoquinolin-6-yl)-5-fluoropyrimidin-2-yl)amino)pyridin-3-yl)methyl)piperazin-1-yl)acetyl)-2-azaspiro[3.3]heptan-6-yl)amino)-6-(isopropylamino)nicotinamide] | C (Relative protein level >85%) |
| CCN1CCc2cc(-c3nc(Nc4ccc(CN5CCN(CC(=O)NC6CC7(C6)CC(Nc6nc(NC(C)C)ccc6C(=O)Nc6ccc(N(C)C)nn6)C7)CC5)cn4)ncc3F)ccc2C1=O (stereo not drawn) [CPD-554, N-(6-(dimethylamino)pyridazin-3-yl)-2-((6-(2-(4-((6-((4-(2-ethyl-1-oxo-1,2,3,4-tetrahydroisoquinolin-6-yl)-5-fluoropyrimidin-2-yl)amino)pyridin-3-yl)methyl)piperazin-1-yl)acetamido)spiro[3.3]heptan-2-yl)amino)-6-(isopropylamino)nicotinamide] | C (Relative protein level >85%) |
| CC(=O)c1c(C)c2cnc(Nc3ccc(N4CCN(C5CCN(C(=O)N6CC7(CCC(Nc8nc(NC(C)C)ccc8C(=O)Nc8ccc(N(C)C)nn8)CC7)C6)C5)CC4)cn3)nc2n(C2CCCC2)c1=O (stereo not drawn) [CPD-555, 2-((2-(3-(4-(6-((6-acetyl-8-cyclopentyl-5-methyl-7-oxo-7,8-dihydropyrido[2,3-d]pyrimidin-2-yl)amino)pyridin-3-yl)piperazin-1-yl)pyrrolidine-1-carbonyl)-2-azaspiro[3.5]nonan-7-yl)amino)-N-(6-(dimethylamino)pyridazin-3-yl)-6-(isopropylamino)nicotinamide] | C (Relative protein level >85%) |
| CC(=O)c1c(C)c2cnc(Nc3ccc(N4CCN(C5CCN(C(=O)C6CCC7(CC(Nc8nc(NC(C)C)ccc8C(=O)Nc8ccc(N(C)C)nn8)C7)C6)C5)CC4)cn3)nc2n(C2CCCC2)c1=O (stereo not drawn) [CPD-556, 2-((6-(3-(4-(6-((6-acetyl-8-cyclopentyl-5-methyl-7-oxo-7,8-dihydropyrido[2,3-d]pyrimidin-2-yl)amino)pyridin-3-yl)piperazin-1-yl)pyrrolidine-1-carbonyl)spiro[3.4]octan-2-yl)amino)-N-(6-(dimethylamino)pyridazin-3-yl)-6-(isopropylamino)nicotinamide] | B (55%< Relative protein level ≤85%) |
| CC(C)Nc1ccc(C(=O)Nc2ccc(N(C)C)nn2)c(NC2CC3(C2)CN(C(=O)CN2CCN(Cc4ccc(Nc5ncc6cc7n(c6n5)C5(CCCCC5)CNC7=O)nc4)CC2)C3)n1 [CPD-557, N-(6-(dimethylamino)pyridazin-3-yl)-6-(isopropylamino)-2-((2-(2-(4-((6-((6′-oxo-7′,8′-dihydro-6′H-spiro[cyclohexane-1,9′-pyrazino[1′,2′:1,5]pyrrolo[2,3-d]pyrimidin]-2′-yl)amino)pyridin-3-yl)methyl)piperazin-1-yl)acetyl)-2-azaspiro[3.3]heptan-6-yl)amino)nicotinamide] | C (Relative protein level >85%) |
| CC(C)Nc1ccc(C(=O)Nc2ccc(N(C)C)nn2)c(NC2CC3(CC(NC(=O)CN4CCN(Cc5ccc(Nc6ncc7cc8n(c7n6)C6(CCCCC6)CNC8=O)nc5)CC4)C3)C2)n1 (stereo not drawn) [CPD-558, N-(6-(dimethylamino)pyridazin-3-yl)-6-(isopropylamino)-2-((6-(2-(4-((6-((6′-oxo-7′,8′-dihydro-6′H-spiro[cyclohexane-1,9′-pyrazino[1′,2′:1,5]pyrrolo[2,3-d]pyrimidin]-2′-yl)amino)pyridin-3-yl)methyl)piperazin-1-yl)acetamido)spiro[3.3]heptan-2-yl)amino)nicotinamide] | C (Relative protein level >85%) |
| CC(C)Nc1ccc(C(=O)Nc2ccc(N(C)C)nn2)c(N[C@H]2CC[C@H](C(=O)N3CCC(N4CCN(c5ccc(Nc6ncc7cc(C(F)F)c(=O)n(C8CCCC8)c7n6)nc5)CC4)C3)CC2)n1 (stereo partly drawn) [CPD-559, 2-((trans-4-(3-(4-(6-((8-cyclopentyl-6-(difluoromethyl)-7-oxo-7,8-dihydropyrido[2,3-d]pyrimidin-2-yl)amino)pyridin-3-yl)piperazin-1-yl)pyrrolidine-1-carbonyl)cyclohexyl)amino)-N-(6-(dimethylamino)pyridazin-3-yl)-6-(isopropylamino)nicotinamide] | B (55%< Relative protein level ≤85%) |

Same assay, conditions: 100 nM, MCF7 cells stably expressing HiBiT tagged target proteins

| SMILES | % Cyclin D1 Relative Level (100 nM) |
| --- | --- |
| CC(C)Nc1ccc(C(=O)Nc2ccc(N(C)C)nn2)c(NC2CC3(C2)CN(C(=O)CN2CCN(Cc4ccc(Nc5ncc6cc7n(c6n5)C5(CCCCC5)CNC7=O)nc4)CC2)C3)n1 [CPD-557, N-(6-(dimethylamino)pyridazin-3-yl)-6-(isopropylamino)-2-((2-(2-(4-((6-((6′-oxo-7′,8′-dihydro-6′H-spiro[cyclohexane-1,9′-pyrazino[1′,2′:1,5]pyrrolo[2,3-d]pyrimidin]-2′-yl)amino)pyridin-3-yl)methyl)piperazin-1-yl)acetyl)-2-azaspiro[3.3]heptan-6-yl)amino)nicotinamide] | A (Relative protein level ≤55%) |
| CC(C)Nc1ccc(C(=O)Nc2ccc(N(C)C)nn2)c(NC2CC3(CC(NC(=O)CN4CCN(Cc5ccc(Nc6ncc7cc8n(c7n6)C6(CCCCC6)CNC8=O)nc5)CC4)C3)C2)n1 (stereo not drawn) [CPD-558, N-(6-(dimethylamino)pyridazin-3-yl)-6-(isopropylamino)-2-((6-(2-(4-((6-((6′-oxo-7′,8′-dihydro-6′H-spiro[cyclohexane-1,9′-pyrazino[1′,2′:1,5]pyrrolo[2,3-d]pyrimidin]-2′-yl)amino)pyridin-3-yl)methyl)piperazin-1-yl)acetamido)spiro[3.3]heptan-2-yl)amino)nicotinamide] | A (Relative protein level ≤55%) |
| CC(C)Nc1ccc(C(=O)Nc2ccc(N(C)C)nn2)c(N[C@H]2CC[C@H](C(=O)N3CCC(N4CCN(c5ccc(Nc6ncc7cc(C(F)F)c(=O)n(C8CCCC8)c7n6)nc5)CC4)C3)CC2)n1 (stereo partly drawn) [CPD-559, 2-((trans-4-(3-(4-(6-((8-cyclopentyl-6-(difluoromethyl)-7-oxo-7,8-dihydropyrido[2,3-d]pyrimidin-2-yl)amino)pyridin-3-yl)piperazin-1-yl)pyrrolidine-1-carbonyl)cyclohexyl)amino)-N-(6-(dimethylamino)pyridazin-3-yl)-6-(isopropylamino)nicotinamide] | A (Relative protein level ≤55%) |
